# In ChEMBL document CHEMBL4888484, “Replenishing the malaria drug discovery pipeline: Screening and hit evaluation of the MMV Hit Generation Library 1 (HGL1) against asexual blood stage Plasmodium falciparum ,using a nano luciferase reporter read-out” (2022):
# Hit rate of the full screen: of about 150,000 compounds, about 540 (0.36%) showed an effect of 50% or more. The list shows a part of the results.
# System: Plasmodium falciparum
# Assay: Primary screen in NF54 nanoGlo assay, in single point, at 2uM, 72h; a lower Z score goes with more inhibition
# Type: functional, Erythrocyte
# Settings: timepoint 72 hour
Compound,% Inhibition [%],Z score
Cc1cn2cc(C(=O)N3CCC(F)(F)CC3)ccc2n1,-16,1.88
CN1N=C(C(=O)N[C@H](c2ccc(F)cc2)c2ncc[nH]2)CCC1=O,7,-1.21
O=C(Cc1csc(Cc2cccc(Cl)c2)n1)Nc1ccc2oc(C(F)(F)F)nc2c1,9,-1.76
COC(=O)c1c(NC(=O)c2ccccc2)c2cc(NCc3ccc(F)c(F)c3)cnc2n1C[C@H]1CCCO1,-2,0.32
CCc1nc(N2CCC3(CC2)C[C@@H](c2ccccc2)C(=O)N(CC)C3)no1,-6,1.23
Cc1ccc(CCNC(=O)NCc2ccoc2C)cn1,3,-0.35
COC[C@@]12CN(C(C)=O)CC[C@@H]1CN(C(=O)COc1cccc(C)c1)C2,-17,1.98
Cc1ccc(-c2nc3cccnc3n2CCCNC(=O)Nc2ccc(Br)cc2)cc1,-6,0.57
COc1cccc(-c2ccc(N3CCN(C(=O)CN(Cc4ccc(F)cc4)C(=O)c4ccco4)CC3)nn2)c1,-12,2.01
O=C(NCc1ccncc1)c1csc(COc2ccc(F)cc2F)n1,-4,0.71
O=C(NCC1COC1)c1cnc(-c2cccnc2)s1,-2,0.23
COCC1CCC(N[C@@H](C)c2nc(C(F)(F)F)no2)CC1 (some centres not stated),-3,0.37
COCc1nc([C@@H]2CCCCCN2C(=O)Nc2cccc(C#N)c2)no1,-9,1.15
COC(=O)Cn1c(=O)n(-c2ccccc2)c(=O)n1CC(=O)OC,1,-0.1
O=S(=O)(Nc1nncs1)c1cc(Cl)sc1Cl,-6,0.65
CN(C(=O)C1(n2cnnn2)CCOCC1)c1nc2c(Cl)cccc2s1,-9,1.1
COc1ccc(C2CC(C)N(C(=O)C(C)NS(C)(=O)=O)C2)cc1 (configuration not stated),-13,1.17
COc1ccc(OC)c([C@H](C)NC(=O)N2CCS(=O)(=O)CC2)c1,41,-5.3
CCS(=O)(=O)N1CC(=O)N(c2ccc(C)c(Cl)c2)[C@](C)(C(=O)NC2CCCCCC2)C1,-13,1.81
Cc1ccc(NC(=O)[C@@]2(CCO)CCN(c3ncccn3)C2)cc1,-10,1.81
COc1ccc([C@@H](NC(=O)N2CCC(c3nc4ccccc4n3C)CC2)C(C)C)cc1OC,-5,0.7

Compound,% Inhibition [%],Z score
O=C(Nc1cnn(-c2ncc(N3CCCCC3)cn2)c1)c1cccnc1,-6,0.9
O=C(Cn1c(=O)n(CC(=O)NC2CCCC2)c(=O)c2ccccc21)Nc1cc(Cl)cc(Cl)c1,-1,0.13
Fc1ccc(-c2nc([C@@]3(CC4CC4)CCCNC3)no2)cc1,2,-0.38
CC(C)CN1CCN(C(=O)c2ccccc2-n2cncn2)[C@@H](C)C1=O,-1,0.24
Cc1c([C@@H](NCc2ncccc2O)C(C)C)oc2ccccc12,97,-8.67
O=C(Nc1snc2ccccc12)[C@H]1CCS(=O)(=O)C1,0,-0.02
CCN(CC)CCN(C)C(=O)c1cnn(-c2nccc(-c3ccccc3OC)n2)c1-c1ccco1,-2,0.24
O=C(CCn1cncn1)Nc1cc(C2CCCCCC2)[nH]n1,-9,0.77
O=C(Nc1ccccn1)c1cc(=O)c(OCc2ccc(Cl)cc2)c[nH]1,-13,1.66
C#CCCC1(CCC(=O)N2CC(OCC(F)F)C2)N=N1,0,0.06
Cc1nn(-c2ccc(C(=O)N3CCOCC3)cc2)c2c1C(=O)CCC2,-15,1.36
CCn1ncc(-c2noc3nc(C4CC4)cc(C(=O)Nc4c(C)noc4C)c23)c1C,30,-3.39
Cc1ccc(O)c(CCc2ccc(O)cc2)n1,0,0.04
c1ccc(CN2CCN(Cc3cccc(Oc4ccccc4)c3)CC2)cc1,-1,0.2
CC(C)[C@@H](C(=O)Nc1ccc(N(C)C)cc1)N(Cc1ccccc1)C(=O)CN1C(=O)C(=O)c2ccccc21,32,-3.65
COc1ccc(NC(=O)c2ccc(Cn3cnc4c3c(=O)n(C)c(=O)n4C)cc2)cc1,-11,2.11
O=C1c2ccccc2C(=O)N1c1ncc(Cc2ccccc2Cl)s1,-7,0.87
CCOC(=O)CN1C(=O)C(F)(F)c2cc(NCc3c(C)noc3C)ccc21,14,-1.41
CCc1noc(C)c1NS(=O)(=O)CCCC(F)(F)F,-1,0.08
CCc1c(C)cc(C(=O)N[C@@H]2COCC[C@@H]2OCC=C(C)C)c(=O)n1C,-4,0.93
